PubChem BioAssay AID360 (National Center for Advancing Translational Sciences (NCATS), 2006)
In all, about 48,000 compounds went through this assay and about 550 (1.1%) were called active. Not shown: some 4% with an inconclusive outcome. No stated cut-off is given here; in the data, active means potency below about 15 µM; inconclusive means mostly about 16 µM to 33 µM; inactive means weaker than that. The list shows a part of the results.

target: Lysosomal acid glucosylceramidase (Homo sapiens) (UniProt P04062); assay: Glucocerebrosidase; settings: purified enzyme, resorufin glucoside fluorescence (screen aimed at inhibitors), 20 min;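 further: the screen sought inhibitors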
In short: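 Compounds titrated against 0.2 nM normal enzyme, 30 uM resorufin beta-D-glucopyranoside substrate, citrate/phosphate buffer with taurocholate and tween-20, pH 5.9. Reaction ran 20 min at room temperature; fluorescence (Ex 548/Em 600) gave AC50.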
Potency means the concentration at half of the fitted maximal effect.

UniProt P04062, sequence (P04062 whole entry, looked up): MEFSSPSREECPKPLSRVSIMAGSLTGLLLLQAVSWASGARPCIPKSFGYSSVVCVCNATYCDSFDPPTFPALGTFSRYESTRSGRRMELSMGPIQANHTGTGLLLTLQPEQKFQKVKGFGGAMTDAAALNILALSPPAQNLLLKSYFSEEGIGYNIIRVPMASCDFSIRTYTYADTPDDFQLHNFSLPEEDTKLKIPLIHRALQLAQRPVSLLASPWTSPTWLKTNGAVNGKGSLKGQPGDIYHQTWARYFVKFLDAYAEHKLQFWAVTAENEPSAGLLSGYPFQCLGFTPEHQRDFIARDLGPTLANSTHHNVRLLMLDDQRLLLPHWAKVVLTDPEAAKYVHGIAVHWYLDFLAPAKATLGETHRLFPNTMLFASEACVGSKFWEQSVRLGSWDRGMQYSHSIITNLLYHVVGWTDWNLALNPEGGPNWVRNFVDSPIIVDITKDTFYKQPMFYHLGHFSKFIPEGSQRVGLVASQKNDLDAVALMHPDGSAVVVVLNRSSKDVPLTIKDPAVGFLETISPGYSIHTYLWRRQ

Potency, inactive:
Cc1ccc(N(C(=O)C2CCCO2)C2C=CS(=O)(=O)C2)cc1Cl (stereo not drawn) > 76.9 µM
O=C(Nc1c(F)cc(F)cc1Br)c1cc(-c2ccco2)on1 > 76.9 µM
COc1ccc(C2(O)CCN(C(=O)c3ccc4c(c3)OCO4)CC2)cc1 > 76.9 µM
CCCCc1nnc(NC(=O)C=C(C)C)s1 > 76.9 µM
c1nc(N2CCOCC2)c2c3c(sc2n1)CCCC3 > 76.9 µM
CCCC(=O)c1cc(-c2nc3ccccc3n2C)n(C)c1 > 76.9 µM
CCOC(=O)CN1C(=O)NC(C)(c2ccc(OC(F)F)cc2)C1=O (stereo not drawn) > 76.9 µM
COc1ccccc1CC(=O)N(CCC#N)CCC#N > 76.9 µM
O=C(COC(=O)C1CCN(S(=O)(=O)c2cccs2)CC1)c1ccc2c(c1)OCCO2 > 76.9 µM
COc1cccc(CNC(=O)C2CCN(S(=O)(=O)N3CCCCC3)CC2)c1 > 76.9 µM
CCOC(=O)c1oc2nc(C(C)C)c3c(c2c1N)CCC3 > 76.9 µM
O=C(NCC1CCCCC1)C1CCCN(C(=O)NC2CCCCC2)C1 (stereo not drawn) > 76.9 µM
CCOc1ccc(CCNC(=O)Cc2nn[nH]n2)cc1OCC > 76.9 µM
CCCOC(=O)c1ccc(OCC(O)CN2CCN(C(=O)c3ccccc3)CC2)cc1 (stereo not drawn) > 76.9 µM
CCOC(=O)c1cccc(NC(=O)CSc2nnnn2C)c1 > 76.9 µM
COc1ccc2c(c1)c1ncn(CCN3CCCC3)c(=O)c1n2C
Cc1nnc(SCCn2c(N3CCC(Cc4ccccc4)CC3)nc3c2c(=O)[nH]c(=O)n3C)s1 > 76.9 µM
COc1ccc(C(=O)CN2C(=O)C(C)(C)Oc3ccc(C(=O)N4CCCCCC4)cc32)cc1 > 76.9 µM
CC(=O)c1cnc(Nc2nc(C)c3ccccc3n2)nc1C > 76.9 µM
O=C(CSc1nncs1)NC(=O)NCc1ccccc1 > 76.9 µM
CCCCOC(=O)C1=C(C)Nc2ncnn2C1c1ccc(OC)c(OC)c1OC (stereo not drawn) > 76.9 µM
CCOc1ccccc1NC(=O)Cn1cnc2c(cnn2-c2ccc(C)c(C)c2)c1=O > 76.9 µM
N#Cc1c(N)nc(N2CCCC2)c(C#N)c1-c1ccc(Cl)cc1 > 76.9 µM
Cc1cc(C)cc(N(CC(=O)NCC2CCCO2)C(=O)CN2C(=O)COc3ccccc32)c1 (stereo not drawn) > 76.9 µM
C=CCn1sc(=N)c(C#N)c1N > 76.9 µM
Cn1nnc(NC(=O)C(c2ccccc2)c2ccccc2)n1 > 76.9 µM
O=C(NC1CCS(=O)(=O)C1)OC1CCCCC1 (stereo not drawn) > 76.9 µM
Cc1nc(SCC(=O)NCc2ccco2)nc(C)c1C > 76.9 µM
COc1ccc(-c2nc(C#N)c(NCc3ccccc3Cl)o2)cc1OC > 76.9 µM
Cc1nn2c(-c3ccccc3)nnc2c2ccccc12 > 76.9 µM
COc1ccccc1C(OC(=O)c1ccco1)C(=O)NC(C)(C)C (stereo not drawn) > 76.9 µM
Cc1nn(CC(=O)NCCc2ccccc2)c(=O)c2ccccc12 > 76.9 µM
COCC(C)n1c(SCC(=O)N2CCCCC2)nc2ccccc2c1=O (stereo not drawn) > 76.9 µM
CCOCCCNc1ccc(-c2ccccc2)nn1 > 76.9 µM
OCCNCc1ccc(OC2CCCC2)cc1 > 76.9 µM
COc1cc(C2C(C(C)=O)=C(C)Nc3ncnn32)ccc1O (stereo not drawn) > 76.9 µM
CCN(CC)CCCNC(=O)c1c(O)c2c([nH]c1=O)CCCC2 > 76.9 µM
CCn1c(COc2ccccc2C)nnc1SCC(=O)NC1CCCC1 > 76.9 µM
Cc1ccc2nc3c(cc2c1)c(NC(=O)c1cccnc1)nn3C
CS(=O)(=O)N(CC(=O)N1CCN(Cc2ccccc2)CC1)C1CCCCC1 > 76.9 µM
CCn1c(SCC(=O)C(C)(C)C)nnc1-c1ccccn1 > 76.9 µM
CCSc1ccc2nnc(-c3cccc(F)c3)n2n1 > 76.9 µM
COc1ccccc1CN1C(=O)CCC1(C)C(=O)NC1CCCCCC1 (stereo not drawn) > 76.9 µM
Cc1cc(NC(=O)c2cccc(N3C(=O)CCC3=O)c2)no1 > 76.9 µM
COc1ccccc1N1CCN(c2cc(=O)n(-c3ccc(Br)cc3)c(=O)[nH]2)CC1 > 76.9 µM
COc1nc(N(c2ccccc2)c2ccccc2)nc(-n2ccnc2)n1 > 76.9 µM
Cc1cc(NC(=O)Cn2nnc3sc4c(c3c2=O)CCCC4)no1 > 76.9 µM
COc1ccccc1Oc1c(C)oc2cc(OC(=O)c3ccco3)ccc2c1=O > 76.9 µM
C=C(C)Cn1c(=O)c2c(nc3n2CCN3c2cccc(Cl)c2C)n(C)c1=O > 76.9 µM
CCn1ccnc1C(O)c1ccc(N(C)C)cc1 (stereo not drawn) > 76.9 µM
CC(=O)c1cc(-c2nc3ccccc3n2C)n(C)c1 > 76.9 µM
CCCCn1cnc2c(cnn2-c2ccc(F)cc2)c1=O > 76.9 µM
COC(=O)c1cc2ccsc2n1CC(=O)Nc1cc(C)cc(C)c1
CCOC(=O)Cc1csc(SCC(=O)Nc2sc3c(c2C(N)=O)CCC3)n1 > 76.9 µM
Cc1cn2c(nc1=O)OC1C(O)C(COC(=O)c3ccccc3)OC12 (stereo not drawn) > 76.9 µM
COCCN(C(=O)Cc1cccs1)c1nnc(-c2ccncc2)s1 > 76.9 µM
COc1ccc(OC)c(S(=O)(=O)N2CCC(C(=O)NCCc3ccc(OC)c(OC)c3)CC2)c1 > 76.9 µM
Cc1cc(C)n2nc(C(=O)N3CCOCC3)nc2n1 > 76.9 µM
CN(C)c1nc(N)nc(Cn2ccnc2)n1 > 76.9 µM
CC(C)OCCCNS(=O)(=O)c1ccc2c(c1)OCCO2 > 76.9 µM
O=C1c2sc3nc4c(c(=O)n3c2C(=O)N1c1ccccc1)CCC4 > 76.9 µM
COC(=O)CCC(=O)Nc1cccc(Cl)c1 > 76.9 µM
Cc1ccc(-c2nnc(SCC#N)n2N)cc1 > 76.9 µM
O=C1NC(=O)c2c(NC(=O)C3CCCO3)cccc21 (stereo not drawn) > 76.9 µM
CC(C)Oc1nc(-c2ccccc2O)nc2ccccc12 > 76.9 µM
COc1ccc(N2C(=O)C(Cl)=C(Nc3c(C)n(C)n(-c4ccccc4)c3=O)C2=O)cc1 > 76.9 µM
COC(=O)C(Nc1nccs1)(OC)C(F)(F)F (stereo not drawn) > 76.9 µM
CC(=O)N1CCc2cc(S(=O)(=O)NC(CC(C)C)C(=O)Nc3ccc4c(c3)OCCO4)ccc21 (stereo not drawn) > 76.9 µM
CCOc1ccc(-c2nc(-c3ccc(OC)cc3)no2)cc1OCC > 76.9 µM
O=C(COc1ncnc2ccccc12)N1CCN(S(=O)(=O)c2ccc(Cl)cc2)CC1 > 76.9 µM
CCOc1ccc(/C(O)=C2\C(=O)C(=O)N(CCN(C)C)C2c2cccc(OC)c2OC)cc1Cl (stereo not drawn) > 76.9 µM
Cc1ccccc1CSc1nc2c(c(=O)[nH]1)CCC2 > 76.9 µM
O=C(OCn1nnc2ccccc2c1=O)c1ccc(S(=O)(=O)N2CCOCC2)cc1 > 76.9 µM
Cc1[nH]nc2c1C(c1ccccn1)N(c1ccc(Br)cc1)C2=O (stereo not drawn) > 76.9 µM
c1ccc(-c2n[nH]c3ccccc23)cc1 > 76.9 µM
CCc1ccc(CN(C)CCc2ccccn2)cc1 > 76.9 µM
COCCn1nnnc1SCC(=O)N1CCCCC1 > 76.9 µM
Cc1ccccc1CN1CCN(S(=O)(=O)c2ccc(F)cc2)CC1 > 76.9 µM
c1cnc(NC2C3CC4CC(C3)CC2C4)nc1 (stereo not drawn) > 76.9 µM
COc1cccc(CNC(=O)C2CCCN(c3nn4c(=O)cc(C)nc4s3)C2)c1 (stereo not drawn) > 76.9 µM
CN(C)CCCOC(=O)c1cc2ccccc2o1 > 76.9 µM
COC(=O)c1ccc(N2CCN(C)CC2)c(NC(=O)c2cc3ccccc3o2)c1 > 76.9 µM
C=CCn1c(C)cc(C(=O)CSc2nnc(-c3cccc(S(=O)(=O)N(CC)CC)c3)o2)c1C > 76.9 µM
Cc1cc2cc(CNC(=O)c3cccs3)ccc2n1C > 76.9 µM
COc1ccc(-n2cnnc2SCC(=O)c2ccc(S(=O)(=O)N3CCOCC3)cc2)cc1 > 76.9 µM
O=C(NC1CCCCCC1)c1cc2n(n1)C(C(F)(F)F)CC(c1ccco1)N2 (stereo not drawn) > 76.9 µM
CN1CCN(CCCNC(=O)CCCOc2cc(=O)n(C)c3ccccc23)CC1 > 76.9 µM
O=C(c1cccn2c(=O)c3cc(Br)ccc3nc12)N1CCN(c2ccccn2)CC1 > 76.9 µM
CC1CCN(CCCNC(=O)C2CCC(=O)N2C2CCCC2)CC1 (stereo not drawn) > 76.9 µM
O=S(=O)(NC1CC1)c1ccc(S(=O)(=O)N2CCN3CCCC3C2)cc1 (stereo not drawn) > 76.9 µM
CCCNC(=O)c1cccc(Cn2nc(C)c(Br)c2C)c1 > 76.9 µM

Potency, active:
Cc1cccc(N2CSC3=C(C#N)C(c4ccc(C)o4)CC(=O)N3C2)c1 (stereo not drawn) 15 µM
O=C(NC1CCCCC1)c1ccc2c(=O)n(CC3CCCO3)c(=O)[nH]c2c1 (stereo not drawn) 6.37 µM
